# Data as given in PubChem BioAssay (Tox21).
# Inconclusive means that the source gave no clear call. Such entries were picked first, then a sample of the others. Potencies of inconclusive entries are left out as doubtful fits. Active and inactive are the calls of the source. The call rests on the fitted dose curve; in most records, active means well fitted curve in the direction sought with a large enough effect in the repeat runs; inconclusive means weak or mixed curves; inactive means no such curve, though single readings can be large; an effect the other way counts as inactive or inconclusive.
# Legend:
# [1] = qHTS RealTime-Glo MT Cell Viability Assay in HepG2 cells - 40 hour (AID 1224870); settings: RealTime-Glo luminescence; series mostly up to 76.8 µM; further: nearly all actives have a fitted effect of over 50% in size
# How it was run: (§1)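 HepG2 cells (600/well) mixed with RealTime-Glo MT reagent, settled 5 h at 37 C/5% CO2 before compound addition. Nonlytic NanoLuc luminescence from viable-cell prosubstrate reduction read repeatedly during 40 h treatment at 37 C.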
# [2] = A CellTox Green Cytotoxicity Assay to monitor cytotoxicity in HEK293 cells - 40 hour (AID 1224871); settings: CellTox Green fluorescence; series mostly up to 76.8 µM; further: nearly all actives have a fitted effect of over 45% in size
# How it was run: (§2)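 Nonlytic real-time cytotoxicity: HEK293 + CellTox Green reagent plated, 5 h preincubation, pintool compound addition (23 nL in DMSO), 37 C for 40 h, fluorescence measured at successive time points.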
# [3] = qHTS RealTime-Glo MT Cell Viability Assay in HEK293 cells - 16 hour (AID 1224872); settings: RealTime-Glo luminescence; series mostly up to 76.8 µM; further: nearly all actives have a fitted effect of over 50% in size
# How it was run: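 Reads taken at 0, 8, 16, 24, 32 and 40 h from the same wells. HEK293 cells (600/well) carried RealTime-Glo reagents from seeding, with compound added after a 5 h settle at 37 C.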
# [4] = qHTS RealTime-Glo MT Cell Viability Assay in HepG2 cells - 8 hour (AID 1224873); settings: RealTime-Glo luminescence; series mostly up to 76.8 µM; further: nearly all actives have a fitted effect of over 55% in size
# How it was run: as §1
# [5] = qHTS RealTime-Glo MT Cell Viability Assay in HEK293 cells - 40 hour (AID 1224874); settings: RealTime-Glo luminescence; max response: stronger effect = lower value; further: nearly all actives have a fitted effect of over 50% in size
# How it was run: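 Cells were seeded together with NanoLuc luciferase and a prosubstrate that viable cells reduce to a luciferase substrate. After a 5 h incubation at 37 C/5% CO2, compounds were added and luminescence was measured repeatedly during 40 h of treatment.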
# [6] = A CellTox Green Cytotoxicity Assay to monitor cytotoxicity in HEK293 cells - 24 hour (AID 1224875); settings: CellTox Green fluorescence; series mostly up to 76.8 µM; further: nearly all actives have a fitted effect of over 45% in size
# How it was run: as §2
# [7] = A CellTox Green Cytotoxicity Assay to monitor cytotoxicity in HepG2 cells - 16 hour (AID 1224876); settings: CellTox Green fluorescence; series mostly up to 76.8 µM; further: nearly all actives have a fitted effect of over 45% in size
# How it was run: (§3)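 Read-out is fluorescence of a cyanine dye excluded from live cells that stains DNA of dead HepG2 cells, with signal proportional to cytotoxicity. Plates were read at 0, 8, 16, 24, 32 and 40 h after compound addition.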
# [8] = qHTS RealTime-Glo MT Cell Viability Assay in HepG2 cells - 32 hour (AID 1224877); settings: RealTime-Glo luminescence; series mostly up to 76.8 µM; further: nearly all actives have a fitted effect of over 55% in size
# How it was run: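 HepG2 suspension premixed with RealTime-Glo reagents is plated at 600 cells per well and left 5 h at 37 C/5% CO2. Compounds in DMSO then go in, and bioluminescence reflecting viable cell number is recorded over 40 h.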
# [9] = A CellTox Green Cytotoxicity Assay to monitor cytotoxicity in HepG2 cells - 24 hour (AID 1224878); settings: CellTox Green fluorescence; series mostly up to 76.8 µM; further: nearly all actives have a fitted effect of over 45% in size
# How it was run: as §3
# [10] = A CellTox Green Cytotoxicity Assay to monitor cytotoxicity in HepG2 cells - 40 hour (AID 1224879); settings: CellTox Green fluorescence; series mostly up to 76.8 µM; further: nearly all actives have a fitted effect of over 40% in size
# How it was run: as §3
# Potency means the concentration at half of the fitted maximal effect; tags describe the fitted curve by direction and shape.
SMILES,Potency [1],Potency [2],Potency [3],Potency [4],Potency [5],Potency [6],Potency [7],Potency [8],Potency [9],Potency [10]
CC(O)C#CC(C)O (stereo unspecified),"inconclusive [falling, single point]",active: 54.4 µM,"inconclusive [cytotoxic, single point]","inconclusive [falling, partial curve]","inconclusive [cytotoxic, single point]","inconclusive [activator, single point]","inconclusive [activator, single point]","inconclusive [cytotoxic, single point]","inconclusive [activator, single point]","inconclusive [activator, full curve, poor fit]"
COC(=O)c1ccc(C)cc1,inactive,–,–,–,–,–,–,–,–,–
O=C(Cl)c1cc(C(=O)Cl)cc(C(=O)Cl)c1,"inconclusive [falling, single point]","inconclusive [activator, single point]","inconclusive [cytotoxic, single point]","inconclusive [falling, single point]",active: 49 µM,"inconclusive [activator, single point]","inconclusive [activator, single point]","inconclusive [cytotoxic, single point]","inconclusive [activator, single point]","inconclusive [activator, single point]"
